Laboratory results as given in paper PMC11995724, “Antibiotic target discovery by integrated phenotypic and activity-based profiling of electrophilic fragments” (Cell chemical biology, 2025).
The campaign covered roughly 3,200 compounds. About 110 (3.4%) showed an effect of 50% or more. The list shows a part of the results.

The molecules below were run on T1, V. cholerae SAD30. Conditions: relative growth, OD600, LB; 25 µM; inhibitor.
T1 construct: SAD30
Design: species or system S. aureus MSSA476 (TSB) or V. cholerae SAD30 (LB); 384-well bacterial growth screen at 25 uM, OD600 relative to DMSO control
In the case of `O=C(CCl)N[C@H]1CCCc2ccccc21` [6-I21, 2-chloro-N-[(1S)-1,2,3,4-tetrahydronaphthalen-1-yl]acetamide], the “% of control remaining” value is reported as 100.711%.
For `C=CC(=O)N(Cc1ccc(F)c(C)c1)CC1(O)CCSCC1` [2-E13, N-[(4-fluoro-3-methylphenyl)methyl]-N-[(4-hydroxythian-4-yl)methyl]prop-2-enamide], the “% of control remaining” value was 82.4761%.
In the case of `COc1ccc(C(=O)CCl)cc1Cl` [10-D10, 2-chloro-1-(3-chloro-4-methoxyphenyl)ethan-1-one], the “% of control remaining” value is reported as 0.9351%.
In the case of `Cl.O=C(CCl)Nc1cccc(CN2CCSCC2)c1` [5-J14, 2-chloro-N-{3-[(thiomorpholin-4-yl)methyl]phenyl}acetamide hydrochloride], the “% of control remaining” value is reported as 96.3329%.
For `CN(CC(=O)Nc1c(Cl)cccc1Cl)C(=O)CCl` [6-M05, 2-chloro-N-{[(2,6-dichlorophenyl)carbamoyl]methyl}-N-methylacetamide], the “% of control remaining” value was 94.9474%.
`C=CC(=O)N1CCC(C(=O)N(C)C(C)CC(N)=O)CC1` (stereo not shown) [2-K20, 3-{N-methyl-1-[1-(prop-2-enoyl)piperidin-4-yl]formamido}butanamide] was tested, and the “% of control remaining” value was 91.8942%.
`CC(C)n1ccnc1C(=O)CCl` [10-H10, 2-chloro-1-[1-(propan-2-yl)-1H-imidazol-2-yl]ethan-1-one] was tested, and the “% of control remaining” value was 100.838%.
In the case of `C=CC(=O)NCc1ccccc1S(=O)(=O)NC(C)(C)C` [1-J03, N-{[2-(tert-butylsulfamoyl)phenyl]methyl}prop-2-enamide], the “% of control remaining” value is reported as 97.7578%.
For `C=CC(=O)N1CCC(C(=O)N(C)Cc2ccon2)CC1` [2-I14, N-methyl-N-[(1,2-oxazol-3-yl)methyl]-1-(prop-2-enoyl)piperidine-4-carboxamide], the “% of control remaining” value was 86.7992%.
For `C=CC(=O)NC1(C(N)=O)Cc2ccccc2C1` [2-D15, 2-(prop-2-enamido)-2,3-dihydro-1H-indene-2-carboxamide], the “% of control remaining” value was 88.8063%.
With `Cc1cc(C)n(C2CN(C(=O)C(C)Cl)C2)n1` (stereo not shown) [7-F15, 2-chloro-1-[3-(3,5-dimethyl-1H-pyrazol-1-yl)azetidin-1-yl]propan-1-one] the “% of control remaining” value was 78.7709%.
For `C=CC(=O)Nc1c(OC)nc(Cl)nc1OC` [1-B14, N-(2-chloro-4,6-dimethoxypyrimidin-5-yl)prop-2-enamide], the “% of control remaining” value was 48.0864%.
For `C=CCNC(=O)C(C#N)=Cc1ccccc1OC` [9-H05, 2-cyano-3-(2-methoxyphenyl)-N-(prop-2-en-1-yl)prop-2-enamide], the “% of control remaining” value was 93.2019%.
With `O=C(CCl)Nc1cc(Cl)c(Cl)cc1Cl` [4-B06, 2-chloro-N-(2,4,5-trichlorophenyl)acetamide] the “% of control remaining” value was 123.183%.
In the case of `Cc1ccc(F)cc1NC(=O)CCl` [4-O03, 2-chloro-N-(5-fluoro-2-methylphenyl)acetamide], the “% of control remaining” value is reported as 106.103%.
In the case of `CC(Cl)C(=O)NC(C)c1ccns1` (stereo not shown) [6-P12, 2-chloro-N-[1-(1,2-thiazol-5-yl)ethyl]propanamide], the “% of control remaining” value is reported as 99.3459%.
With `C=CC(=O)NC1CC(C)Cc2cc(OC)ccc21` (stereo not shown) [3-L17, N-(6-methoxy-3-methyl-1,2,3,4-tetrahydronaphthalen-1-yl)prop-2-enamide] the “% of control remaining” value was 87.3259%.
`N#CC(C(=O)CCl)c1nncn1-c1ccccc1` (stereo not shown) [10-L14, 4-chloro-3-oxo-2-(4-phenyl-4H-1,2,4-triazol-3-yl)butanenitrile] was tested, and the “% of control remaining” value was 96.1621%.
In the case of `CN(C(=O)c1ccccc1)C1CC2CCC(C1)N2C(=O)CCl` (stereo not shown) [5-J03, N-[8-(2-chloroacetyl)-8-azabicyclo[3.2.1]octan-3-yl]-N-methylbenzamide], the “% of control remaining” value is reported as 111.8%.
In the case of `CC(C)C(=O)Nc1ccc(C(=O)CCl)cc1` [10-D04, N-[4-(2-chloroacetyl)phenyl]-2-methylpropanamide], the “% of control remaining” value is reported as 37.405%.
For `CC(Cl)C(=O)NCCc1cn(C)nn1` (stereo not shown) [7-A14, 2-chloro-N-[2-(1-methyl-1H-1,2,3-triazol-4-yl)ethyl]propanamide], the “% of control remaining” value was 82.7358%.
With `Cc1ccc(N2C(=O)C=CC2=O)c([N+](=O)[O-])c1` [10-N13, 1-(4-methyl-2-nitrophenyl)-2,5-dihydro-1H-pyrrole-2,5-dione] the “% of control remaining” value was 27.1186%.
In the case of `C=CC(=O)N(Cc1ccccc1)Cc1ccccc1` [1-P04, N,N-dibenzylprop-2-enamide], the “% of control remaining” value is reported as 99.8528%.
`C=CC(=O)NCC1CCN(S(=O)(=O)C(F)(F)F)CC1` [1-A03, N-[(1-trifluoromethanesulfonylpiperidin-4-yl)methyl]prop-2-enamide] was tested, and the “% of control remaining” value was 100.448%.
For `CC(C)NC(=O)C(C#N)=Cc1ccccc1` [8-L05, 2-cyano-3-phenyl-N-(propan-2-yl)prop-2-enamide], the “% of control remaining” value was 76.8865%.
With `O=C(CCl)Nc1ccccc1C(=O)NCc1ccccc1` [4-C03, N-benzyl-2-(2-chloroacetamido)benzamide] the “% of control remaining” value was 113.694%.
`O=C(CCl)NCC(=O)N(c1ccccc1)c1ccccc1` [7-B12, 2-chloro-N-[(diphenylcarbamoyl)methyl]acetamide] was tested, and the “% of control remaining” value was 83.9253%.
For `C=CC(=O)N(C)CC(=O)N1CCOC(c2ccccc2Cl)C1` (stereo not shown) [2-J04, N-{2-[2-(2-chlorophenyl)morpholin-4-yl]-2-oxoethyl}-N-methylprop-2-enamide], the “% of control remaining” value was 90.9679%.
With `CCN(CC(=O)NC1CCS(=O)(=O)C1)C(=O)CCl` (stereo not shown) [4-I19, 2-chloro-N-{[(1,1-dioxo-1lambda6-thiolan-3-yl)carbamoyl]methyl}-N-ethylacetamide] the “% of control remaining” value was 104.723%.
For `N#CC(=Cc1ccccc1Cl)C(=O)Nc1cccc2ncccc12` [8-C15, 3-(2-chlorophenyl)-2-cyano-N-(quinolin-5-yl)prop-2-enamide], the “% of control remaining” value was 75.9347%.
`N#CC(C(=O)Nc1ccccc1)=C1NCCCN1` [8-H10, 2-cyano-2-(1,3-diazinan-2-ylidene)-N-phenylacetamide] was tested, and the “% of control remaining” value was 69.6805%.
